Data published in ChEMBL document CHEMBL4813913, “In vitro identification of imidazo[1,2-a]pyrazine-based antileishmanial agents and evaluation of L. major casein kinase 1 inhibition” (Eur J Med Chem, 2021).

Columns and labels:
[1] = molecular target: T1, Glycogen synthase kinase-3 (Sus scrofa, UniProt B2LUN4+I6LNT8); experiment: Inhibition of pig brain GSK alpha/beta using YRRAAVPPSPSLSRHSSPHQSpEDEEE as substrate in presence of [gamma-33P]ATP by radiometric assay; format: ADME, Sus scrofa domesticus
[2] = Toxicity against Galleria mellonella larva assessed as reduction of viability at 50 mg/kg measured for 7 days; format: organism-based; settings: in vivo, 168 h, time 7 day
Outline: (§1)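 G. mellonella larvae (6th stage, 260–320 mg), groups of ten. Injected in the 4th left pro-leg with 10 μL at 10–50 mg/kg; controls got PBS/DMSO (DMSO <40%). Kept in the dark at 37 °C. Survival and cuticular darkening scored daily for 7 days; death taken as no movement on stimulus. Kaplan-Meier with log-rank test; two independent experiments.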

[3] = molecular target: T2, Dual specificity protein kinase CLK1 (Mus musculus, UniProt P22518); experiment: Inhibition of recombinant mouse CLK1 expressed in bacteria using GRSRSRSRSRSR as substrate in presence of [gamma-33P]ATP by radiometric assay; format: ADME
[4] = Cytotoxicity against human MRC5 cells assessed as reduction in cell viability measured after 96 hrs by resazurin assay; format: cell-based
Outline: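 Human MRC-5 fibroblasts grown in RPMI 1640 with 10% FBS. Exposed to 100, 10 and 1 μM in triplicate for 96 h. Then 10 μL of 700 μM resazurin added for 4 h and fluorescence read. Value is the mean of triplicates.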

Leishmania major = experiment: Antileishmanial activity against amastigote stage of Leishmania major (MHOM/IL/81/BNI) infected in BALB/c mouse peritoneal macrophages assessed as reduction in parasitic proliferation measured after 4 days by MayGrunwald-Giemsa stain based microscopic method; format: functional, organism-based; settings: Peritoneal macrophage, 96 h
Outline: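 BALB/c peritoneal macrophages on glass slides, 1.5×10⁵ cells/mL in RPMI 1640 with 15% FBS, 24 h attachment. Infected with stationary-phase promastigotes (1.5×10⁶/mL) for 24 h at 37 °C, 5% CO₂. Washed, then exposed 4 days to 100, 10, 1, 0.1 μM (DMSO ≤1% final). Methanol-fixed, May-Grunwald-Giemsa stained, amastigotes counted in 100 macrophages per duplicate well. IC50 from amastigotes/macrophage. Run twice.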

[5] = Cytotoxicity against mouse RAW264.7 cells assessed as reduction in cell growth measured after 48 hrs by SYBR Green 1 dye based fluorescence assay
Outline: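 RAW 264.7 cells seeded at 100,000 cells/well in DMEM with 10% FBS, 24 h at 37 °C, 5% CO₂. Two-fold serial dilutions, final 49 nM–100 μM, for 48 h. Growth read by SYBR Green I. CC50 by nonlinear regression. Miltefosine reference; untreated cells as growth control.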

CDK2/Cyclin A2 [6] = molecular target: T3, CDK2/Cyclin A2 (Homo sapiens, UniProt P24941); experiment: Inhibition of human CDK2/ cyclinA using histone H1 as substrate in presence of [gamma-33P]ATP by radiometric assay; format: ADME, protein-complex assay
[7] = molecular target: T4, Cyclin-dependent kinase 5/CDK5 activator 1 (Homo sapiens, UniProt Q00535); experiment: Inhibition of human recombinant CDK5/ p25 expressed in bacterial expression system using histone H1 as substrate in presence of [gamma-33P]ATP by radiometric assay; format: ADME
[8] = molecular target: T5, Serine/threonine-protein kinase pim-1 (Homo sapiens, UniProt P11309); experiment: Inhibition of recombinant human PIM1 expressed in bacteria using histone H1 as substrate in presence of [gamma-33P]ATP by radiometric assay; format: ADME
[9] = molecular target: Casein kinase I isoform epsilon (Homo sapiens, UniProt P49674); experiment: Inhibition of recombinant human CK1 epsilon expressed in baculovirus infected Sf9 cells using RRKHAAIGSpAYSITA as substrate; format: ADME
[10] = molecular target: Dual specificity tyrosine-phosphorylation-regulated kinase 1A (Rattus norvegicus, UniProt Q63470); experiment: Inhibition of recombinant rat DYRK1A (1 to 499 ) expressed in bacterial expression system using KKISGRLSPIMTEQ as substrate in presence of ATP measured after 30 mins by ADP-Glo assay; settings: 0.5 h
Leishmania amazonensis = experiment: Antileishmanial activity against amastigote stage Leishmania amazonensis (MHOM/BR/73/M2269) infected in mouse RAW264.7 cells assessed as reduction in parasitic proliferation measured by SYBR Green 1 dye based fluorescence assay; format: functional, organism-based; settings: MHOM/BR/73/M2269, RAW264.7
Outline: (§2)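 RAW 264.7 macrophages seeded at 100,000 cells/well in DMEM with 10% heat-inactivated FBS, 24 h at 37 °C, 5% CO₂. Infected with plateau-phase promastigotes (parasite:macrophage 16:1) for 24 h. Compounds serially diluted, final 391 nM–100 μM. Amastigote viability read by SYBR Green I after lysis and 3 freeze-thaw cycles. IC50 by nonlinear regression against excipient-treated controls. Miltefosine reference.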

[11] = molecular target: T1, Glycogen synthase kinase-3; experiment: Inhibition of pig brain GSK alpha/beta using YRRAAVPPSPSLSRHSSPHQSpEDEEE as substrate in presence of ATP measured after 30 mins by ADP-Glo assay; format: ADME, tissue-based, Sus scrofa domesticus
[12] = Toxicity against Galleria mellonella larva assessed as cuticular darkening at 50 mg/kg measured for 7 days; format: organism-based; settings: in vivo, 168 h, time 7 day; outline: as §1
Leishmania braziliensis = experiment: Antileishmanial activity against amastigote stage of Leishmania braziliensis (MHOM/BR/75/M2903b) infected in mouse RAW264.7 cells assessed as reduction in parasitic proliferation measured by SYBR Green 1 dye based fluorescence assay; format: functional, organism-based; outline: as §2
CDK2/Cyclin A2 [13] = molecular target: T3, CDK2/Cyclin A2; experiment: Inhibition of human CDK2/ cyclinA using histone H1 as substrate in presence of ATP measured after 30 mins by ADP-Glo assay; format: protein-complex assay
Leishmania infantum = experiment: Antileishmanial activity against amastigote stage of Leishmania infantum (MHOM/FR/2008/LEM5700) infected in mouse RAW264.7 cells assessed as reduction in parasitic proliferation measured by SYBR Green 1 dye based fluorescence assay; format: functional, organism-based; settings: MHOM/FR/2008/LEM5700, RAW264.7; outline: as §2
[14] = molecular target: T4, Cyclin-dependent kinase 5/CDK5 activator 1; experiment: Inhibition of human recombinant CDK5/ p25 expressed in bacterial expression system using histone H1 as substrate in presence of ATP measured after 30 mins by ADP-Glo assay
[15] = molecular target: T2, Dual specificity protein kinase CLK1; experiment: Inhibition of recombinant mouse CLK1 expressed in bacteria using GRSRSRSRSRSR as substrate in presence of ATP measured after 30 mins by ADP-Glo assay
[16] = molecular target: T5, Serine/threonine-protein kinase pim-1; experiment: Inhibition of recombinant human PIM1 expressed in bacteria using histone H1 as substrate in presence of ATP measured after 30 mins by ADP-Glo assay; settings: 0.5 h
CDK9/cyclin T1 = CDK9/cyclin T1 (Homo sapiens, UniProt P50750); experiment: Inhibition of human recombinant CDK9/CyclinT expressed in baculovirus infected Sf9 cells using YSPTSPSYSPTSPSYSPTSPSKKK as substrate in presence of ATP measured after 30 mins by ADP-Glo assay
[17] = molecular target: Receptor-interacting serine/threonine-protein kinase 3 (Homo sapiens, UniProt Q9Y572); experiment: Inhibition of recombinant human RIPK3 expressed in baculovirus infected Sf9 cells using MBP as substrate in presence of ATP measured after 30 mins by ADP-Glo assay; format: ADME; settings: sf9, 0.5 h
[18] = Inhibition of recombinant Leishmania major CK1.2 expressed in bacterial expression system using RRKHAAIGSpAYSITA as substrate in presence of ATP measured after 30 mins by ADP-Glo assay
Aurora kinase B = Aurora kinase B (Homo sapiens, UniProt Q96GD4); experiment: Inhibition of recombinant human AURKB expressed in baculovirus infected Sf9 cells using MBP as substrate in presence of ATP measured after 30 mins by ADP-Glo assay; settings: sf9, 0.5 h
Leishmania donovani = experiment: Antileishmanial activity against amastigote stage of Leishmania donovani (MHOM/ET/67/HU3) infected in mouse RAW264.7 cells assessed as reduction in parasitic proliferation measured by SYBR Green 1 dye based fluorescence assay; format: functional, organism-based; settings: MHOM/ET/67/HU3, RAW264.7; outline: as §2

SMILES | IC50 [1] | Activity [2] | pIC50 [3] | CC50 at 96 h [4] | pIC50 (Leishmania major) | CC50 at 48 h [5] | pIC50 (CDK2/Cyclin A2 [6]) | pIC50 [7] | inhibition (INH) [8] | pIC50 [9] | inhibition (INH) [10] | pIC50 (Leishmania amazonensis) | IC50 [11] | Activity [12] | pIC50 (Leishmania braziliensis) | pIC50 (CDK2/Cyclin A2 [13]) | pIC50 (Leishmania infantum) | pIC50 [14] | pIC50 [15] | inhibition (INH) [16] | further results
CN(C)c1nccn2c(-c3ccnc(N)n3)c(-c3ccccc3)nc12 | > 10 µM | Non-Toxic | 6.23 | 58.4 µM | 4.55 | 44.1 µM | < 5.00 | < 5.00 | Not Active |  |  |  |  |  |  |  |  |  |  |  | 
CSc1nccc(-c2c(-c3ccccc3)nc3c(N(C)C)nccn23)n1 | > 10 µM | Non-Toxic | 6.05 | 81 µM | < 4.00 | 33.4 µM | < 5.00 | < 5.00 | Not Active | < 5.00 |  |  |  |  |  |  |  |  |  |  | 
CSc1nccc(-c2c(-c3ccc(F)cc3)nc3c(N)nccn23)n1 | 4.5 µM | Non-Toxic | 6.80 | 18.4 µM | 4.26 | 11.5 µM | 5.00 | 6.00 | Not Active | 6.74 |  |  |  |  |  |  |  |  |  |  | 
CN(C)c1nccn2c(-c3cccnc3)c(-c3ccc(F)cc3)nc12 |  | Non-Toxic |  | 48.9 µM | < 4.30 | 43.9 µM |  |  |  | < 4.00 | Not Active | < 4.30 | > 10 µM | Non-Toxic | < 4.30 | < 5.00 | < 4.30 | < 5.00 | < 5.00 | Not Active | pIC50 (CDK9/cyclin T1): < 5.00; inhibition (INH) [17]: Not Active; pIC50 [18]: < 4.00; inhibition (INH) (Aurora kinase B): Not Active; pIC50 (Leishmania donovani): < 4.30
CSc1nccc(-c2c(-c3ccc(F)cc3)nc3c(N(C)C)nccn23)n1 | > 10 µM | Non-Toxic | < 5.00 | 67 µM | < 4.00 | 36.5 µM | < 5.00 | < 5.00 | Not Active | < 5.00 |  |  |  |  |  |  |  |  |  |  | 
CN(C)c1nccn2c(-c3cnc(N)nc3)c(-c3ccc(F)cc3)nc12 |  | Non-Toxic |  | > 100 µM | < 4.30 | 49 µM |  |  |  | < 4.00 | Not Active | < 4.30 | > 10 µM | Non-Toxic | < 4.30 | < 5.00 | < 4.30 | < 5.00 | < 5.00 | Not Active | pIC50 (CDK9/cyclin T1): < 5.00; inhibition (INH) [17]: Not Active; pIC50 [18]: 4.80; inhibition (INH) (Aurora kinase B): Not Active; pIC50 (Leishmania donovani): < 4.30

pIC50: −log10 of the molar value.
